Assay results as given in a collection of fitness landscapes (doi:10.1016/j.celrep.2020.107928).
Whole data set: some 81,000 sequences, median “one-hybrid fitness for binding NBS DNA” near -0.1, cut for the highest 2% near 0.36. The list shows a part of the results.

B1: Caulobacter ParB omega fusion; a variant is named by its letters at X, in order, B8GW30 (parent)
chain: MESVVVGEPGMSEGRRGLGRGLSALLGEVDAAPAQAPGEQLGGSREAPIEILQRNPDQPRRTFREEDLEDLSNSIREKGVLQPILVRPSPDTAGEYQIVAGERAWRAAQRAGLKTVPIMVRELDDLAVLEIGIIENVQRADLNVLEEALSYKVLMEKFERTQENIAQTIGKSXSHVANXMRLLXLPDEVQSYLVSGELTAXHARAIAAAADPVALAKQIIEGGLSVRETEALARKAPNLSAGKSKGGRPPRVKDTDTQALESDLSSVLGLDVSIDHRGSTGTLTITYATLEQLDDLCNRLTRGI

Variants of: B1
Assay: one-hybrid fitness for binding NBS DNA (the Noc-binding site; scaled: cognate 1, non-cognate 0); higher = stronger binding
Conditions: with NBS DNA site
Outline: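 In E. coli USO, a HIS3 reporter with its site placed 19 bp from the promoter was used to select Caulobacter ParB variants randomised at four specificity codons. Growth lasted 48 hours at 37°C on histidine-free M9 containing 0.1 mM IPTG and 5 mM 3-AT. Fitness was taken as the log change in variant-to-wild-type read ratio from Illumina sequencing of pre- and post-selection plasmids, rescaled between the non-cognate and cognate sites.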

Variant | one-hybrid fitness for binding NBS DNA
FEYV | ≤ 0.2
WAHG | ≤ 0.2
VPTW | ≤ 0.2
YKPT | ≤ 0.2
PHIQ | ≤ 0.2
GASQ | ≤ 0.2
VMQW | ≤ 0.2
QSAW | ≤ 0.2
TTKM | ≤ 0.2
DIGS | ≤ 0.2
QSAK | ≤ 0.2
TASF | ≤ 0.2
DLAG | ≤ 0.2
SLFM | ≤ 0.2
WVFS | ≤ 0.2
SMWA | ≤ 0.2
HMLM | ≤ 0.2
PHDN | ≤ 0.2
RHHS | 0.443
PPLI | ≤ 0.2
GHWM | ≤ 0.2
YYCR | ≤ 0.2
VGAC | ≤ 0.2
VSIR | ≤ 0.2
AGLS | ≤ 0.2

Variant | one-hybrid fitness for binding NBS DNA
NANA | ≤ 0.2
DIYG | ≤ 0.2
IGYR | ≤ 0.2
GPTW | ≤ 0.2
VQPW | ≤ 0.2
GRTW | ≤ 0.2
ECRG | ≤ 0.2
DASF | ≤ 0.2
REWT | ≤ 0.2
RGSQ | ≤ 0.2
TLIY | ≤ 0.2
TPYI | ≤ 0.2
EDLD | ≤ 0.2
ATRF | ≤ 0.2
KCQS | ≤ 0.2
NHSG | ≤ 0.2
LFQG | ≤ 0.2
HMNL | ≤ 0.2
WTFI | ≤ 0.2
VFAG | ≤ 0.2
GDNV | ≤ 0.2
TGEF | ≤ 0.2
QCIL | ≤ 0.2
QQWC | ≤ 0.2
ISRT | ≤ 0.2

Variant | one-hybrid fitness for binding NBS DNA
RVKV | ≤ 0.2
LCRI | ≤ 0.2
VPPH | ≤ 0.2
AQRG | ≤ 0.2
YVPA | ≤ 0.2
GSEC | ≤ 0.2
ENWV | ≤ 0.2
NWTC | ≤ 0.2
FYHS | ≤ 0.2
ARAG | ≤ 0.2
SNNW | ≤ 0.2
SCYN | ≤ 0.2
KRIV | ≤ 0.2
RFVE | ≤ 0.2
QVIF | ≤ 0.2
LEVL | ≤ 0.2
DMEG | ≤ 0.2
PDRH | ≤ 0.2
RHCV | ≤ 0.2
LRHK | ≤ 0.2
YYPS | ≤ 0.2
QGQR | ≤ 0.2
HTIY | ≤ 0.2
LPYR | ≤ 0.2
RVPK | ≤ 0.2

Variant | one-hybrid fitness for binding NBS DNA
LENR | ≤ 0.2
FWEG | ≤ 0.2
HIAS | ≤ 0.2
WSHT | ≤ 0.2
QFGS | ≤ 0.2
LLQY | ≤ 0.2
HDHR | ≤ 0.2
LIYR | ≤ 0.2
RNFQ | ≤ 0.2
YQTN | ≤ 0.2
CRRC | ≤ 0.2
SKQF | ≤ 0.2
QPVF | ≤ 0.2
NTSG | ≤ 0.2
QRRL | 0.364
PHLT | ≤ 0.2
QAQT | 0.364
APWG | ≤ 0.2
CSMD | ≤ 0.2
KWAR | ≤ 0.2
RGFL | ≤ 0.2
AYWA | ≤ 0.2
DLFE | ≤ 0.2
SLCV | ≤ 0.2
INYP | ≤ 0.2

Variant | one-hybrid fitness for binding NBS DNA
WSNC | ≤ 0.2
QGKL | ≤ 0.2
AQIV | ≤ 0.2
SFTY | ≤ 0.2
KCCV | ≤ 0.2
HPCW | ≤ 0.2
WYHG | ≤ 0.2
TRGH | ≤ 0.2
RSRK | ≤ 0.2
PATP | ≤ 0.2
HVGL | ≤ 0.2
RYDH | ≤ 0.2
LRSV | ≤ 0.2
TWMY | ≤ 0.2
FYVC | ≤ 0.2
RAAC | ≤ 0.2
PIQC | ≤ 0.2
IRYC | ≤ 0.2
SPAV | ≤ 0.2
GFNR | ≤ 0.2
KTSK | ≤ 0.2
QGNE | ≤ 0.2
WFKG | ≤ 0.2
VDLC | ≤ 0.2
TVGV | ≤ 0.2

Variant | one-hybrid fitness for binding NBS DNA
TLGW | ≤ 0.2
DAMY | ≤ 0.2
TTVT | ≤ 0.2
WQWS | ≤ 0.2
QCTE | ≤ 0.2
FDRC | ≤ 0.2
DIRG | ≤ 0.2
RGKP | ≤ 0.2
WNHR | ≤ 0.2
SYAR | ≤ 0.2
TKGP | ≤ 0.2
SNSN | ≤ 0.2
SRVS | ≤ 0.2
GSRC | ≤ 0.2
RLQC | ≤ 0.2
ATER | ≤ 0.2
LGNT | ≤ 0.2
YFGG | ≤ 0.2
KTYK | ≤ 0.2
GDKC | ≤ 0.2
VPTY | ≤ 0.2
RFLR | ≤ 0.2
TSCY | ≤ 0.2
QTLI | ≤ 0.2
SCLC | ≤ 0.2

Variant | one-hybrid fitness for binding NBS DNA
SRPR | ≤ 0.2
VFPT | ≤ 0.2
QQDN | ≤ 0.2
SGTR | ≤ 0.2
PSDA | ≤ 0.2
VVTY | ≤ 0.2
RNRW | ≤ 0.2
ESAP | ≤ 0.2
DTWV | ≤ 0.2
TNPF | ≤ 0.2
FGLC | ≤ 0.2
NALR | ≤ 0.2
INYC | ≤ 0.2
GIAC | ≤ 0.2
STLC | ≤ 0.2
WDTC | ≤ 0.2
GTSF | ≤ 0.2
CLRR | ≤ 0.2
QFSA | ≤ 0.2
TWGS | ≤ 0.2
DSES | ≤ 0.2
TAFA | ≤ 0.2
CECS | ≤ 0.2
RGSD | ≤ 0.2
YAGS | ≤ 0.2

Variant | one-hybrid fitness for binding NBS DNA
EAPN | ≤ 0.2
ECQS | ≤ 0.2
HNCC | ≤ 0.2
SRSA | ≤ 0.2
ATFF | ≤ 0.2
LARK | ≤ 0.2
QRDH | 0.381
PVGP | ≤ 0.2
TTML | ≤ 0.2
LWPT | ≤ 0.2
HFSI | ≤ 0.2
VQRG | ≤ 0.2
PSAY | ≤ 0.2
TCTF | ≤ 0.2
TNDS | ≤ 0.2
RQYH | ≤ 0.2
TNCS | ≤ 0.2
RECS | ≤ 0.2
RVAV | ≤ 0.2
SKNN | ≤ 0.2
